Patent publication US7592316B2, “Peptides as NS3-serine protease inhibitors of hepatitis C virus” (Schering Corporation, priority 2000, dated 2009)

Molecular target: HCV NS3/NS4A protease (strain 1a) (Hepatitis C virus genotype 1a, UniProt P27958)
Experiment: biochemical
Conditions: Compounds prepared by Solid Phase Synthesis, Table 3; read-out: Ki* CLASS

For `CCCCC(NC(=O)CNC(=O)C(=O)C(CCC)NC(=O)[C@@H]1C[C@@H](OC(C)(C)C)CN1C(=O)C(NC(=O)Cc1cc(C(F)(F)F)cc(C(F)(F)F)c1)C1CCCCC1)C(N)=O` (stereo partly shown) (X28-[ξChg][Hyp](tBu)[X2]G[ξNle]-NH2), which Ki is on record?
Its Ki is > 1 µM.

`CCCC(NC(=O)[C@@H]1C[C@@H](OCc2ccccc2)CN1C(=O)C(NC(=O)c1c(C)cccc1C)C1CCCCC1)C(=O)C(=O)NCC(=O)NC(C(N)=O)c1ccccc1` (stereo partly shown) (X29-[ξChg][Hyp](Bn)[X2]G[ξPhg]-NH2) was tested. Which Ki did it give?
The Ki was 0.101 to 1 µM.

With `CCCCC(NC(=O)[C@@H]1C[C@@H](OCc2ccccc2)CN1C(=O)C(NC(=O)c1c(C)cccc1C)C1CCCCC1)C(=O)C(=O)NCC(=O)NC(C(N)=O)c1ccccc1` (stereo partly shown) (X29-[ξChg][Hyp](Bn)[X4]G[ξPhg]-NH2) as the compound, how does the Ki read?
The Ki was 0.101 to 1 µM.

How did the Ki turn out when `CCCC(NC(=O)[C@@H]1C[C@@H](OCc2ccccc2)CN1C(=O)C(NC(=O)C(C)C(C)C(=O)O)C1CCCCC1)C(=O)C(=O)NCC(=O)NC(C(=O)O)c1ccccc1` (stereo partly shown) (X30-[ξChg][Hyp](Bn)[X2]G[ξPhg]-OH) was run?
Its Ki is 0.101 to 1 µM.

`CCCC(NC(=O)[C@@H]1C[C@@H](OCc2ccccc2)CN1C(=O)C(NC(=O)c1nccnc1C(=O)O)C1CCCCC1)C(=O)C(=O)NCC(=O)NC(C(N)=O)c1ccccc1` (stereo partly shown) (X31-[ξChg][Hyp](Bn)[X2]G[ξPhg]-NH2) was tested. Which Ki did it give?
The Ki was 0.101 to 1 µM.

How did the Ki turn out when `CCCCC(NC(=O)[C@@H]1C[C@@H](OCc2ccccc2)CN1C(=O)C(NC(=O)c1nccnc1C(=O)O)C1CCCCC1)C(=O)C(=O)NCC(=O)NC(C(N)=O)c1ccccc1` (stereo partly shown) (X31-[ξChg][Hyp](Bn)[X4]G[ξPhg]-NH2) was run?
The Ki was 0.101 to 1 µM.

How did the Ki turn out when `CCCCC(NC(=O)CNC(=O)C(=O)C(CCC)NC(=O)[C@@H]1C[C@@H](OCC(=O)O)CN1C(=O)C(NC(=O)Cc1cccc(C)c1)C1CCCCC1)C(N)=O` (stereo partly shown) (X34-[ξChg][Hyp](Carboxymethyl)[X2]G[ξNle]-NH2) was run?
The Ki was > 1 µM.

For `CCCCC(NC(=O)CNC(=O)C(=O)C(CCC)NC(=O)[C@@H]1C[C@@H](OCOCCOC)CN1C(=O)C(NC(=O)CC1CC2CCC1C2)C1CCCCC1)C(N)=O` (stereo partly shown) (X36-[ξChg][Hyp](MEM)[X2]G[ξNle]-NH2), which Ki is on record?
Its Ki is 0.101 to 1 µM.

`CCCCC(NC(=O)CNC(=O)C(=O)C(CCC)NC(=O)[C@@H]1C[C@@H](OCc2ccccc2)CN1C(=O)C(NC(=O)C(Cc1ccccc1)C(C)(C)C)C1CCCCC1)C(N)=O` (stereo partly shown) (X38-[ξChg][Hyp](Bn)[X2]G[ξNle]-NH2) was tested. Which Ki did it give?
The Ki was > 1 µM.

`CCCCC(NC(=O)CNC(=O)C(=O)C(CCC)NC(=O)[C@@H]1C[C@@H](OCOCCOC)CN1C(=O)C(NC(=O)C1(C(=O)O)CC1)C1CCCCC1)C(N)=O` (stereo partly shown) (X39-[ξChg][Hyp](MEM)[X2]G[ξNle]-NH2) was tested. Which Ki did it give?
The Ki was > 1 µM.

For `CCCCC(NC(=O)CNC(=O)C(=O)C(CCC)NC(=O)[C@@H]1C[C@@H](OCc2ccccc2)CN1C(=O)C(NC(=O)C(CC)c1ccccc1)C1CCCCC1)C(N)=O` (stereo partly shown) (X40-[ξChg][Hyp](Bn)[X2]G[ξNle]-NH2), which Ki is on record?
Its Ki is 0.101 to 1 µM.

How did the Ki turn out when `CCCCC(NC(=O)CNC(=O)C(=O)C(CCC)NC(=O)[C@@H]1C[C@@H](OCC(=O)OC(C)(C)C)CN1C(=O)C(NC(=O)Cc1ccc(Br)cc1)C1CCCCC1)C(N)=O` (stereo partly shown) (X41-[ξChg][Hyp](CH2CO2tBu)[X2]G[ξNle]-NH2) was run?
Its Ki is > 1 µM.

How did the Ki turn out when `CCCC(NC(=O)[C@@H]1C[C@@H](OCc2ccccc2)CN1C(=O)C(NC(=O)c1cc(F)c(F)cc1Cl)C1CCCCC1)C(=O)C(=O)NCC(=O)N[C@@H](C(N)=O)c1ccccc1` (stereo partly shown) (X42-[ξChg][Hyp](Bn)[X2]G[dPhg]-NH2) was run?
The Ki was > 1 µM.

Which Ki does the source give for `CCCC(NC(=O)[C@@H]1C[C@@H](OCc2ccccc2)CN1C(=O)C(NC(=O)c1cccc(C)c1C)C1CCCCC1)C(=O)C(=O)NCC(=O)N[C@@H](C(N)=O)c1ccccc1` (stereo partly shown) (X43-[ξChg][Hyp](Bn)[X2]G[dPhg]-NH2) here?
The Ki was 0.101 to 1 µM.

For `CCCCC(NC(=O)CNC(=O)C(=O)C(CCC)NC(=O)[C@@H]1C[C@@H](OCc2ccccc2)CN1C(=O)C(NC(=O)CC(CC(=O)O)c1ccccc1)C1CCCCC1)C(N)=O` (stereo partly shown) (X44-[ξChg][Hyp](Bn)[X2]G[ξNle]-NH2), which Ki is on record?
Its Ki is > 1 µM.

For `CCCCC(NC(=O)CNC(=O)C(=O)C(CCC)NC(=O)[C@@H]1C[C@@H](OCC(=O)OC(C)(C)C)CN1C(=O)C(NC(=O)Cc1cccc(O)c1)C1CCCCC1)C(N)=O` (stereo partly shown) (X48-[ξChg][Hyp](CH2CO2tBu)[X2]G[ξNle]-NH2), which Ki is on record?
Its Ki is > 1 µM.

`CCCCC(NC(=O)[C@@H]1C[C@@H](OCc2ccccc2)CN1C(=O)C(NC(=O)[C@@H]1CCCC[C@H]1C(=O)c1ccccc1)C1CCCCC1)C(=O)C(=O)NCC(=O)NC(C(N)=O)c1ccccc1` (stereo partly shown) (X49-[ξChg][Hyp](Bn)[X4]G[ξPhg]-NH2) was tested. Which Ki did it give?
Its Ki is > 1 µM.

Which Ki does the source give for `CC(C)CC(NC(=O)[C@@H]1C[C@@H](OC(C)(C)C)CN1C(=O)[C@@H](NC(=O)C1CCC(C(=O)O)CC1)C1CCCCC1)C(=O)C(=O)NCC(=O)N[C@H](C(N)=O)c1ccccc1` (stereo partly shown) (X51-[Chg][Hyp](tBu)[ξLeu(ψCOCO)]G[Phg]-NH2) here?
Its Ki is > 1 µM.

How did the Ki turn out when `CCCCC(NC(=O)C(CCCC)NC(=O)CNC(=O)C(=O)C(CCC)NC(=O)[C@@H]1C[C@@H](OCc2ccccc2)CN1C(=O)C(NC(=O)C1CCCCC1C)C1CCCCC1)C(N)=O` (stereo partly shown) (X53-[ξChg][Hyp](Bn)[X2]G[ξNle][ξNle]-NH2) was run?
Its Ki is 0.101 to 1 µM.

*1 amine or outer side, *2 acyl side, *3 side chain or, on linkers, in order; H or OH if unused. Where a SMILES comes first, the peptide text is derived from it. [ ]: non-standard residue; d: D form. The star is where a group is joined. ξ: configuration not given here. ξLeu(ψCOCO) = CC(C)CC(N[*:1])C(=O)C(=O)[*:2]; X49 = O=C(c1ccccc1)[C@@H]1CCCC[C@H]1C(=O)*; X28 = O=C(Cc1cc(C(F)(F)F)cc(C(F)(F)F)c1)*; X4 = CCCCC(N[*:1])C(=O)C(=O)[*:2]; Hyp = O=C(O)[C@@H]1C[C@@H](O)CN1; X2 = CCCC(N[*:1])C(=O)C(=O)[*:2]; X38 = CC(C)(C)C(Cc1ccccc1)C(=O)*; X44 = O=C(O)CC(CC(=O)*)c1ccccc1; dPhg = N[C@@H](C(=O)O)c1ccccc1; CH2CO2tBu = CC(C)(C)OC(=O)C*; Chg = N[C@H](C(=O)O)C1CCCCC1; Phg = N[C@H](C(=O)O)c1ccccc1; X42 = O=C(c1cc(F)c(F)cc1Cl)*; X51 = O=C(O)C1CCC(C(=O)*)CC1; X30 = CC(C(=O)O)C(C)C(=O)*; X31 = O=C(O)c1nccnc1C(=O)*; X39 = O=C(O)C1(C(=O)*)CC1; X40 = CCC(C(=O)*)c1ccccc1; X41 = O=C(Cc1ccc(Br)cc1)*; ξChg = NC(C(=O)O)C1CCCCC1; ξPhg = NC(C(=O)O)c1ccccc1; Carboxymethyl = O=C(O)C*; X29 = Cc1cccc(C)c1C(=O)*; X34 = Cc1cccc(CC(=O)*)c1; X36 = O=C(CC1CC2CCC1C2)*; X43 = Cc1cccc(C(=O)*)c1C; X48 = O=C(Cc1cccc(O)c1)*; X53 = CC1CCCCC1C(=O)*; ξNle = CCCCC(N)C(=O)O; Bn = c1ccc(C*)cc1; tBu = CC(C)(C)*; MEM = COCCOC*
